First the molecules themselves.
B1: LINE1-mini (parent)
chain: GGCAGAGCUCAACACAGCGUGGCAAAGUGGCUGUGGCUAGACUGCC

The source gives no read counts; variants with many changes may rest on few reads.

The data set covers variants of B1. Briefly: self-cleavage, relative activity (ratio to wild type); higher = more cleavage; in vitro, sequencing; the parent is a self-cleaving ribozyme.
Consider A16G G30C U34A, for which the self-cleavage was found to be 0.03.

Take A16U G22A C23A U38A: the self-cleavage was 0.41.

Regarding A16U A26G U38A, the self-cleavage amounted to 0.17.

On to A16U G22C G30U G35C G44U, for which the self-cleavage came out at 0.05.

As for A16C G29A G30C, the self-cleavage was found to be 0.05.

For A16G U20G U38C, the self-cleavage worked out at 0.02.

With A16G A25U C31A, the self-cleavage is 0.02.

Consider A16C U28A G29U G33A G36U C45A, for which the self-cleavage stood at 0.06.

Regarding A16U G21A C23A, the self-cleavage was found to be 0.26.

On to A16C G17U G27U A39U, for which the self-cleavage was found to be 0.13.

A16C G21C G27A U43A: the self-cleavage came out at 0.21.

Consider A16G A24G A25C C46U, for which the self-cleavage was found to be 0.04.

Take A16U G36A C42U: the self-cleavage was found to be 0.03.

For the variant A16U G22U G40A, the self-cleavage worked out at 0.96.

For the variant A16C U34A C46G, the self-cleavage amounted to 0.01.

As for A16G G17A U34G, the self-cleavage was found to be 0.04.

Consider A16G G33C C46U, for which the self-cleavage came to 0.

In the case of A16C G35U G36A, the self-cleavage came out at 0.04.

Consider A16C U20C G27C G36U, for which the self-cleavage came to 0.01.

For A16U G19U C23U A41U, the self-cleavage was found to be 0.13.

On to A16G G30U U43C, for which the self-cleavage stood at 0.01.

For the variant A16G C23U G33C, the self-cleavage came to 0.01.

As to A16C G19A U20C G33U, the self-cleavage was 0.03.

On to A16C G21A G22U C31G G35A, for which the self-cleavage was 0.03.

Regarding A16C U28G G40U, the self-cleavage stood at 0.03.

Turning to A16U C37A C45U, the self-cleavage is 0.11.

With A16U G33U G40A, the self-cleavage was found to be 0.05.

A16C G27C C42G: the self-cleavage was 0.05.

A16C G22U G29C G35U A41U: the self-cleavage was 0.01.

Consider A16G C18A A25C, for which the self-cleavage came to 0.03.

In the case of A16C G27A G35C, the self-cleavage came out at 0.03.

In the case of A16G A39C C45A, the self-cleavage was determined as 0.01.

Take A16C G29U A39G: the self-cleavage was 0.08.

On to A16U G29U G33U, for which the self-cleavage stood at 0.31.

Turning to A16G C31G U32G, the self-cleavage turned out to be 0.01.

For the variant A16G C31G U32C, the self-cleavage came to 0.05.

As to A16G C23U U43C, the self-cleavage stood at 0.11.

Regarding A16G C18G G40C C42U, the self-cleavage was determined as 0.14.

For A16G U20G G35U, the self-cleavage stood at 0.02.

In the case of A16C G19C G36U C45U, the self-cleavage stood at 0.03.

Regarding A16G G21U G35C, the self-cleavage amounted to 0.01.

With A16U G22C G33A C46G, the self-cleavage came out at 0.08.

Regarding A16U C31U C46A, the self-cleavage is 0.08.

As to A16U G30U G35A, the self-cleavage was 0.01.

On to A16U C18U C31A, for which the self-cleavage was determined as 0.07.

With A16C G19C A25U, the self-cleavage came out at 1.06.

As for A16G C18A G22U, the self-cleavage came out at 0.43.

Take A16U G40A U43A C45A: the self-cleavage stood at 0.01.

Take A16G A25G U38A: the self-cleavage amounted to 0.53.

As to A16U A26G G33A, the self-cleavage stood at 0.04.

Turning to A16C G22C C31G G35A, the self-cleavage came out at 0.02.

For A16C U20G U28G, the self-cleavage came out at 0.

In the case of A16C U20G U28A, the self-cleavage amounted to 0.06.

Turning to A16C G17C A26U C37A C45A, the self-cleavage was determined as 0.07.

Turning to A16G G33U G36U C37U, the self-cleavage stood at 0.

Take A16C U28A U43C C46U: the self-cleavage was 0.02.

Regarding A16U G21C G22U, the self-cleavage was 0.08.

In the case of A16G C45A C46A, the self-cleavage was 0.03.

Turning to A16C C37A C45U, the self-cleavage came to 0.05.

For A16U C18U A26U, the self-cleavage stood at 0.06.

Turning to A16G G35U G36A, the self-cleavage was determined as 0.08.

Turning to A16U G40C A41G, the self-cleavage is 0.

In the case of A16C G36A C45G, the self-cleavage was 0.04.

As to A16U C31G C45A, the self-cleavage was determined as 0.01.

For A16G G22U C42G, the self-cleavage is 0.02.

Regarding A16C G29U G33U G44U, the self-cleavage stood at 0.01.

Turning to A16C G19C C37A C45A, the self-cleavage came out at 0.14.

As for A16U A26G C31G U38C, the self-cleavage is 0.03.

Take A16G G33A G44A: the self-cleavage came to 0.02.

On to A16U G21U A25G U28A U38A, for which the self-cleavage was determined as 0.97.

On to A16G G19C G21C C23A, for which the self-cleavage was 0.13.

A16U G17C G44C: the self-cleavage was 0.01.

As for A16U C23A U28C U32C U38A G44A, the self-cleavage was 0.04.

Regarding A16G U20G G33A, the self-cleavage is 0.08.

For A16G U34A U43A, the self-cleavage turned out to be 0.1.

As to A16C C37G U38A C42U, the self-cleavage was 0.29.

Consider A16U G22U C42G, for which the self-cleavage turned out to be 0.01.

Consider A16C G22A U34A, for which the self-cleavage is 0.05.

With A16G C18U G30A U34C, the self-cleavage was determined as 0.02.

A16U C31G U34A C37A: the self-cleavage came out at 0.07.

For the variant A16G C23G G27U, the self-cleavage is 0.52.

Regarding A16U G21C U32C G35A, the self-cleavage came to 0.04.

On to A16G U28C C31G G36C C45U C46G, for which the self-cleavage stood at 0.05.

In the case of A16G G27C G44A, the self-cleavage is 0.08.

For the variant A16C G19U G33C, the self-cleavage was found to be 0.02.

In the case of A16C G19A C45G, the self-cleavage worked out at 0.04.

Consider A16G C31G G40C, for which the self-cleavage came to 0.

Take A16C G35A C42A: the self-cleavage amounted to 0.06.

Turning to A16G U20G A39U, the self-cleavage was 0.05.

Regarding A16G G30C U32G, the self-cleavage is 0.31.

Consider A16U A24U A26U, for which the self-cleavage was determined as 0.43.

For the variant A16C G19A C31A A39C C42G, the self-cleavage was 0.

Turning to A16G C37A A41C C46A, the self-cleavage was found to be 0.03.

On to A16G G17U G19A G40U C45A, for which the self-cleavage came to 0.45.

Consider A16U G19C U28C G36U C42A, for which the self-cleavage turned out to be 0.09.

For A16G G27U G33C, the self-cleavage was 0.06.

For A16G U20G G21U A39U U43A, the self-cleavage was 0.

For A16G A24G U32A, the self-cleavage was 0.02.

On to A16G C31G G33U C37U G44C, for which the self-cleavage came to 0.01.

For A16U A26U G33U, the self-cleavage amounted to 0.13.

Regarding A16C G27C A41C, the self-cleavage came out at 0.02.

Turning to A16U C23A G36U, the self-cleavage is 0.04.

Turning to A16G G21A G27A, the self-cleavage stood at 1.25.

With A16G G21A A39G, the self-cleavage was found to be 0.06.

A16U A26G C37A C45G: the self-cleavage was determined as 0.

Take A16G A41G C46G: the self-cleavage turned out to be 0.08.

With A16U A26G G29C, the self-cleavage came out at 0.71.

Regarding A16G C23G A24C, the self-cleavage came to 0.03.

For A16U G27U G36A, the self-cleavage was determined as 0.09.

Regarding A16U G27U G36C, the self-cleavage is 0.05.

On to A16C G21U A41U, for which the self-cleavage came out at 0.05.

Consider A16U C23U G36C, for which the self-cleavage was determined as 0.03.

A16G G17A G22C A39G: the self-cleavage came out at 0.01.

With A16U A24U C31U G36C, the self-cleavage was determined as 0.

For the variant A16C G29A U34C G36A G40A C42G, the self-cleavage is 0.05.

Take A16U C18G G21U G40C: the self-cleavage was determined as 0.

With A16C G35U U38C, the self-cleavage turned out to be 0.18.

A16U C18A G33C: the self-cleavage stood at 0.02.

For the variant A16U G29U G35C U38G, the self-cleavage was 0.02.

On to A16C G19A G27U, for which the self-cleavage was 0.15.

On to A16G C23U A24U G29A, for which the self-cleavage came to 2.17.

On to A16U G35A G36U, for which the self-cleavage is 0.14.

Turning to A16G G21U U32G A39G C42A, the self-cleavage was found to be 0.03.

Take A16C G17U G44C: the self-cleavage came out at 0.

For the variant A16C G21A U32G C37U, the self-cleavage was determined as 0.02.

For A16G G19C U34G U38G, the self-cleavage amounted to 0.02.

In the case of A16G G17A U38A A39C, the self-cleavage was determined as 0.01.

Regarding A16U G22A U34C G40C, the self-cleavage came out at 0.01.

With A16U G19C A25G G33C A41C C45A, the self-cleavage is 0.01.

Regarding A16G U38A C42U, the self-cleavage was determined as 0.07.

On to A16C G17C G21C G27U, for which the self-cleavage is 0.04.

Take A16U G30U G33A: the self-cleavage was determined as 0.2.

With A16G G19A G35A, the self-cleavage came out at 0.01.

For the variant A16G A26C U28A, the self-cleavage was found to be 0.06.

As to A16U G22C A39U, the self-cleavage came out at 0.08.

On to A16U A39C C46U, for which the self-cleavage came out at 0.07.

Take A16U A39C C46A: the self-cleavage amounted to 0.14.

With A16G C37A G40U, the self-cleavage is 0.37.

With A16C U20A C23A G35A, the self-cleavage amounted to 0.07.

Regarding A16G G17U C23G G33A, the self-cleavage stood at 0.01.

With A16U A25G G33A, the self-cleavage is 0.06.

A16G G19U A25C: the self-cleavage turned out to be 0.19.

As for A16U G19C U43C, the self-cleavage was determined as 0.06.

Regarding A16G G17A A41G, the self-cleavage came to 0.02.

In the case of A16G C18A C31A G40U, the self-cleavage stood at 0.

As to A16U A24C C37A, the self-cleavage is 0.08.

Turning to A16G G19A G21C G36U, the self-cleavage was determined as 0.03.

Take A16G A24U G27U G30A: the self-cleavage stood at 2.31.

Consider A16G U43C G44U, for which the self-cleavage was 0.02.

For A16U C18A G30C C45U C46A, the self-cleavage is 0.02.

On to A16G G21C G27U G44U, for which the self-cleavage turned out to be 0.12.

On to A16G U20G G21U, for which the self-cleavage is 0.04.

For A16U C18G G35U C46G, the self-cleavage was 0.01.

Turning to A16G C23A G30U G40C, the self-cleavage is 0.02.

On to A16G G21C U32A G36U C45U, for which the self-cleavage was 0.

As to A16G A41G G44U, the self-cleavage was determined as 0.07.

A16C G21A C31A U34G G35U: the self-cleavage was determined as 0.08.

For A16C G27A G40A, the self-cleavage stood at 0.02.

Turning to A16C U20C C23U G40U, the self-cleavage stood at 0.01.

With A16U G19C A25U C37A, the self-cleavage was found to be 0.05.

As for A16U A25U U38A C46G, the self-cleavage came to 0.01.

For A16U G21C A25G, the self-cleavage is 0.15.

As to A16U G22A U43G, the self-cleavage came to 0.

As for A16C G29U C37U, the self-cleavage was 1.46.

With A16G G17U C23U G29U C46A, the self-cleavage is 0.1.

As to A16U G17C G21A G29C, the self-cleavage came to 0.17.

On to A16C G33A U38A, for which the self-cleavage was 0.07.

For the origin of these results see the RNAGym collection of RNA variant scans (doi:10.7554/elife.90254).
